Experimental data: patent publication US20260207606A1, “DOSING SCHEDULE OF A SOLID DISPERSION OF A HER2 INHIBITOR” (Boehringer Ingelheim International GmbH, priority 2022, published 2026)

Tested on: HER2 aberration-positive advanced and/or metastatic solid tumours
Assay: Phase Ia dose escalation trial: tumour response according to RECIST v1.1, duration of treatment and response
Assay type: in vivo, human
Description: Tumour assessments should include computed tomography (CT) scans of the chest, abdomen/pelvis (or PET/CT) and a brain MRI at screening. If clinically indicated, imaging of any other known or suspected sites of disease (e.g. bone) using an appropriate method (CT scan, MRI, PET/CT, or bone scan) should be performed. The same radiographic procedure must be used throughout the trial. Assessments will be performed by the investigator at screening (≤28 days prior to initiation of treatment), every 2 cycles (6 weeks ±5 days), at the end-of-treatment (EOT) visit (if not performed within the previous 3 weeks), and at the discretion of the investigator, and copies may be collected by the sponsor or designee. Wherever possible the assessment schedule should not be changed, but if there is an interruption or delay to treatment, alteration of the tumour assessment schedule to align with clinical assessments is allowed. Additional unscheduled tumour assessments may be performed at the discretion of the investigator. If the patient stops trial medication for a reason other than progression, tumour assessment according to RECIST v1.1 continues until progression (or until one of the following occurs; death, lost to follow-up, end of the trial).
Tumour response is evaluated according to RECIST Version 1.1 (Eisenhauer E A, Therasse P, Bogaerts J, Schwartz L H, Sargent D, Ford R, et al. New response evaluation criteria in solid tumours: revised RECIST guideline (version 1.1). Eur J Cancer. 2009; 45:228-247). RECIST 1.1 is used for a) whole-body assessment (classical RECIST 1.1) and b) the tumour assessment of non-CNS areas. The assessment according to classical RECIST 1.1 by the investigator and/or the local radiologist is the basis for continuation or discontinuation of the trial in an individual patient (in addition to safety). No whole-body RECIST assessment is performed in the dose escalation part.

[1] = 60 mg QD, 5 patients, regardless of confirmation, data lock 17 Mar. 2023
[2] = 120 mg QD, 4 patients, regardless of confirmation, data lock 17 Mar. 2023
[3] = 180 mg QD, 6 patients, regardless of confirmation, data lock 17 Mar. 2023
[4] = 240 mg QD, 6 patients, regardless of confirmation, data lock 17 Mar. 2023
[5] = 300 mg QD, 5 patients, regardless of confirmation, data lock 17 Mar. 2023
[6] = 32 of 36 patients with tumour response assessments, BID and QD
[7] = QD Total, 26 patients, regardless of confirmation, data lock 17 Mar. 2023
[8] = excluding patients with best overall response non-evaluable at data cut-off

Structure (SMILES): C=CC(=O)NC1CCN(c2ncc3ncnc(Nc4ccc(Oc5ccc6c(c5)ncn6C)c(C)c4)c3n2)CC1 [compound (1), N-{1-[8-({3-methyl-4-[(1-methyl-1H-1,3-benzodiazol-5-yl)oxy]phenyl}amino)-[1,3]diazino[5,4-d]pyrimidin-2-yl]piperidin-4-yl}prop-2-enamide]
- Best overall response (RECIST 1.1): Complete response, % (15 mg BID): 0.0%
- Best overall response (RECIST 1.1): Non-CR/Non-PD, % (15 mg BID): 0.0%
- Best overall response (RECIST 1.1): Not evaluable, % (15 mg BID): 0.0%
- Best overall response (RECIST 1.1): Partial response, % (15 mg BID): 0.0%
- Best overall response (RECIST 1.1): Progressive disease, % (15 mg BID): 0.0%
- Best overall response (RECIST 1.1): Stable disease, % (15 mg BID): 100.0%
- Best overall response (RECIST 1.1): Complete response, % (30 mg BID): 0.0%
- Best overall response (RECIST 1.1): Non-CR/Non-PD, % (30 mg BID): 0.0%
- Best overall response (RECIST 1.1): Not evaluable, % (30 mg BID): 0.0%
- Best overall response (RECIST 1.1): Partial response, % (30 mg BID): 66.7%
- Best overall response (RECIST 1.1): Progressive disease, % (30 mg BID): 0.0%
- Best overall response (RECIST 1.1): Stable disease, % (30 mg BID): 33.3%
- Best overall response (RECIST 1.1): Complete response, % (60 mg BID): 0.0%
- Best overall response (RECIST 1.1): Non-CR/Non-PD, % (60 mg BID): 0.0%
- Best overall response (RECIST 1.1): Not evaluable, % (60 mg BID): 0.0%
- Best overall response (RECIST 1.1): Partial response, % (60 mg BID): 50.0%
- Best overall response (RECIST 1.1): Progressive disease, % (60 mg BID): 0.0%
- Best overall response (RECIST 1.1): Stable disease, % (60 mg BID): 50.0%
- Best overall response (RECIST 1.1): Complete response, % [1]: 0.0%
- Best overall response (RECIST 1.1): Non-CR/Non-PD, % [1]: 0.0%
- Best overall response (RECIST 1.1): Not evaluable, % [1]: 0.0%
- Best overall response (RECIST 1.1): Partial response, % [1]: 40.0%
- Best overall response (RECIST 1.1): Progressive disease, % [1]: 20.0%
- Best overall response (RECIST 1.1): Stable disease, % [1]: 40.0%
- Best overall response (RECIST 1.1): Complete response, % (100 mg BID): 0.0%
- Best overall response (RECIST 1.1): Non-CR/Non-PD, % (100 mg BID): 0.0%
- Best overall response (RECIST 1.1): Not evaluable, % (100 mg BID): 0.0%
- Best overall response (RECIST 1.1): Partial response, % (100 mg BID): 25.0%
- Best overall response (RECIST 1.1): Progressive disease, % (100 mg BID): 0.0%
- Best overall response (RECIST 1.1): Stable disease, % (100 mg BID): 75.0%
- Best overall response (RECIST 1.1): Complete response, % [2]: 0.0%
- Best overall response (RECIST 1.1): Non-CR/Non-PD, % [2]: 0.0%
- Best overall response (RECIST 1.1): Not evaluable, % [2]: 0.0%
- Best overall response (RECIST 1.1): Partial response, % [2]: 50.0%
- Best overall response (RECIST 1.1): Progressive disease, % [2]: 25.0%
- Best overall response (RECIST 1.1): Stable disease, % [2]: 25.0%
- Best overall response (RECIST 1.1): Complete response, % (150 mg BID): 0.0%
- Best overall response (RECIST 1.1): Non-CR/Non-PD, % (150 mg BID): 0.0%
- Best overall response (RECIST 1.1): Not evaluable, % (150 mg BID): 33.3%
- Best overall response (RECIST 1.1): Partial response, % (150 mg BID): 33.3%
- Best overall response (RECIST 1.1): Progressive disease, % (150 mg BID): 0.0%
- Best overall response (RECIST 1.1): Stable disease, % (150 mg BID): 33.3%
- Best overall response (RECIST 1.1): Complete response, % [3]: 0.0%
- Best overall response (RECIST 1.1): Non-CR/Non-PD, % [3]: 0.0%
- Best overall response (RECIST 1.1): Not evaluable, % [3]: 16.7%
- Best overall response (RECIST 1.1): Partial response, % [3]: 16.7%
- Best overall response (RECIST 1.1): Progressive disease, % [3]: 0.0%
- Best overall response (RECIST 1.1): Stable disease, % [3]: 66.7%
- Best overall response (RECIST 1.1): Complete response, % [4]: 0.0%
- Best overall response (RECIST 1.1): Non-CR/Non-PD, % [4]: 0.0%
- Best overall response (RECIST 1.1): Not evaluable, % [4]: 50.0%
- Best overall response (RECIST 1.1): Partial response, % [4]: 33.0%
- Best overall response (RECIST 1.1): Progressive disease, % [4]: 16.7%
- Best overall response (RECIST 1.1): Stable disease, % [4]: 0.0%
- Best overall response (RECIST 1.1): Complete response, % [5]: 0.0%
- Best overall response (RECIST 1.1): Non-CR/Non-PD, % [5]: 0.0%
- Best overall response (RECIST 1.1): Not evaluable, % [5]: 80.0%
- Best overall response (RECIST 1.1): Partial response, % [5]: 0.0%
- Best overall response (RECIST 1.1): Progressive disease, % [5]: 0.0%
- Best overall response (RECIST 1.1): Stable disease, % [5]: 20.0%
- PD, patients [6]: 3
- best tumor response of partial response (PR), regardless of confirmation, patients [6]: 12
- complete response (CR), patients [6]: none of the patients
- stable disease, patients [6]: 17
- patients with at least one PR assessment, % (35 patients treated for at least one cycle of 21 days on Jan. 23, 2023): 37.14%
- Best overall response (RECIST 1.1): Complete response, % (BID Total): 0.0%
- Best overall response (RECIST 1.1): Non-CR/Non-PD, % (BID Total): 0.0%
- Best overall response (RECIST 1.1): Not evaluable, % (BID Total): 5.9%
- Best overall response (RECIST 1.1): Partial response, % (BID Total): 35.3%
- Best overall response (RECIST 1.1): Progressive disease, % (BID Total): 0.0%
- Best overall response (RECIST 1.1): Stable disease, % (BID Total): 58.8%
- Best overall response (RECIST 1.1): Complete response, % [7]: 0.0%
- Best overall response (RECIST 1.1): Non-CR/Non-PD, % [7]: 0.0%
- Best overall response (RECIST 1.1): Not evaluable, % [7]: 30.8%
- Best overall response (RECIST 1.1): Partial response, % [7]: 26.9%
- Best overall response (RECIST 1.1): Progressive disease, % [7]: 11.5%
- Best overall response (RECIST 1.1): Stable disease, % [7]: 30.8%
- patients with at least one PR assessment, % (QD schedule, 18 patients): 38.89%
- median duration of response (Kaplan Meier estimates) (all treated patients): 7 months
- disease control rate (DCR) [8]: 95.8%
- overall response rate (ORR) [8]: 45.8%
- exposure-response relationships for tumor shrinkage and ORR (higher dose range (180 mg-300 mg)): Flat
